Some of the results follow.
test system: T1, Caupolican (Caup) homeodomain DNA-binding domain; experiment: PBM E-score (8-mer, recovered from the published 9-mer minima) (E-score (dimensionless, -0.5 to 0.5)); Drosophila protein; higher = stronger relative binding preference, active = 0.31 or more
T1 sequence: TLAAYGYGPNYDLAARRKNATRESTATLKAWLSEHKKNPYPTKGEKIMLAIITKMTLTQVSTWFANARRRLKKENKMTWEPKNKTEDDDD
Outline: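 An enrichment score, with higher meaning stronger, expresses relative binding preference for each short DNA word. The protein used was Caup's homeodomain DNA-binding domain (residues 214-303), produced by in vitro transcription and translation and tested at 100 nM on custom-designed protein binding microarrays. The 8-mer values were recovered from published 9-mer scores, each equal to the lower of its two constituent 8-mer scores.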

Question: AGCGGTCG was tested. Which “PBM E-score” value did it give?
Answer: inactive: -0.217

Question: How did the “PBM E-score” value turn out when ATACGTCA was run?
Answer: inactive: 0.111

Question: With GACGACGC as the sequence, how does the “PBM E-score” value read?
Answer: inactive: -0.0708

Question: How did the “PBM E-score” value turn out when CGTGTCAC was run?
Answer: active: 0.334

Question: How did the “PBM E-score” value turn out when CACGTACC was run?
Answer: inactive: 0.0545

Question: How did the “PBM E-score” value turn out when ACCAGCCA was run?
Answer: ≥ -0.0176

Question: ATCGGCCA was tested. Which “PBM E-score” value did it give?
Answer: inactive: -0.173

Question: Which “PBM E-score” value does the source give for ACCCACTC here?
Answer: inactive: -0.155

Question: With CCCCAGAG as the sequence, how does the “PBM E-score” value read?
Answer: inactive: -0.338

Question: How did the “PBM E-score” value turn out when AATTGACT was run?
Answer: inactive: 0.0825

Question: With CAGGACTC as the sequence, how does the “PBM E-score” value read?
Answer: inactive: -0.0134

Question: Which “PBM E-score” value does the source give for AAAGGTGT here?
Answer: inactive: 0.0733

Question: How did the “PBM E-score” value turn out when CCTTATTA was run?
Answer: inactive: 0.091

Question: With AAGGCATT as the sequence, how does the “PBM E-score” value read?
Answer: inactive: -0.082

Question: With AGCTCGTA as the sequence, how does the “PBM E-score” value read?
Answer: inactive: 0.024

Question: With TGCATGCA as the sequence, how does the “PBM E-score” value read?
Answer: inactive: 0.0646

Question: With ACTACTAC as the sequence, how does the “PBM E-score” value read?
Answer: inactive: 0.218

Question: How did the “PBM E-score” value turn out when ATCGTCTC was run?
Answer: inactive: -0.0221

Question: Which “PBM E-score” value does the source give for AAGGTTAC here?
Answer: inactive: -0.032

Question: With AAATGGCT as the sequence, how does the “PBM E-score” value read?
Answer: inactive: -0.0421

Question: ATTCAATG was tested. Which “PBM E-score” value did it give?
Answer: inactive: 0.138

Question: How did the “PBM E-score” value turn out when TACAGCGA was run?
Answer: inactive: 0.0762

Question: How did the “PBM E-score” value turn out when CGGGTGTA was run?
Answer: inactive: 0.135

Question: How did the “PBM E-score” value turn out when GCTTTCCC was run?
Answer: inactive: -0.189

Question: Which “PBM E-score” value does the source give for CTTGTACC here?
Answer: active: 0.389

Question: How did the “PBM E-score” value turn out when ATGACGCA was run?
Answer: ≥ 0.0873

Question: Which “PBM E-score” value does the source give for CTCAACGA here?
Answer: inactive: -0.00451

Question: ATGGGAGG was tested. Which “PBM E-score” value did it give?
Answer: inactive: -0.139

Question: How did the “PBM E-score” value turn out when GCCCGGCA was run?
Answer: inactive: -0.324

Question: ACGTACAA was tested. Which “PBM E-score” value did it give?
Answer: inactive: 0.288

Question: Which “PBM E-score” value does the source give for CTTTAGGC here?
Answer: inactive: -0.0888

Question: CCCTAGCC was tested. Which “PBM E-score” value did it give?
Answer: inactive: -0.247

Question: CAGAGTCC was tested. Which “PBM E-score” value did it give?
Answer: inactive: -0.0925

Question: Which “PBM E-score” value does the source give for GAATCCTC here?
Answer: inactive: -0.138

Question: For CCCAGCTC, which “PBM E-score” value is on record?
Answer: inactive: -0.226

Question: CGTGGCAC was tested. Which “PBM E-score” value did it give?
Answer: ≥ 0.00683

Question: CCCACTAA was tested. Which “PBM E-score” value did it give?
Answer: inactive: -0.044

Question: For ACACATCT, which “PBM E-score” value is on record?
Answer: inactive: 0.19

Question: How did the “PBM E-score” value turn out when AGCTTCTA was run?
Answer: inactive: -0.075

Question: How did the “PBM E-score” value turn out when AATAAGTG was run?
Answer: inactive: 0.0304

Question: With AAGGTCGG as the sequence, how does the “PBM E-score” value read?
Answer: inactive: -0.117

Question: How did the “PBM E-score” value turn out when CCAGTGGC was run?
Answer: inactive: -0.119

Question: With TAAAATGA as the sequence, how does the “PBM E-score” value read?
Answer: inactive: 0.12

Question: How did the “PBM E-score” value turn out when GGGCTGAC was run?
Answer: inactive: -0.108

Question: Which “PBM E-score” value does the source give for AAGTAGAG here?
Answer: inactive: 0.136

Question: With ACGGGTAC as the sequence, how does the “PBM E-score” value read?
Answer: inactive: 0.103

Question: CTATTACC was tested. Which “PBM E-score” value did it give?
Answer: inactive: 0.0284

Question: For CGTTCGAC, which “PBM E-score” value is on record?
Answer: inactive: -0.0191

Question: For ACCGACTC, which “PBM E-score” value is on record?
Answer: inactive: -0.0618

Question: ATGACCCC was tested. Which “PBM E-score” value did it give?
Answer: inactive: -0.046

Question: How did the “PBM E-score” value turn out when AGAAATGA was run?
Answer: inactive: 0.049

Question: With TACCAGAA as the sequence, how does the “PBM E-score” value read?
Answer: inactive: 0.121

Question: GGATCCCA was tested. Which “PBM E-score” value did it give?
Answer: inactive: -0.0305

Question: For TAGACCAA, which “PBM E-score” value is on record?
Answer: inactive: 0.0626

Question: With GCACCTAC as the sequence, how does the “PBM E-score” value read?
Answer: inactive: -0.115

Question: How did the “PBM E-score” value turn out when CAGTCAAG was run?
Answer: inactive: 0.0123

Question: How did the “PBM E-score” value turn out when AGGTTAGC was run?
Answer: inactive: -0.0686

Question: Which “PBM E-score” value does the source give for AGAACACA here?
Answer: active: ≥ 0.317

Question: CGAACATA was tested. Which “PBM E-score” value did it give?
Answer: active: 0.343

Question: How did the “PBM E-score” value turn out when CTATGTGA was run?
Answer: inactive: 0.137

Question: Which “PBM E-score” value does the source give for ATTGCGCC here?
Answer: inactive: -0.154

Question: For AGCGGCTA, which “PBM E-score” value is on record?
Answer: inactive: -0.14

Question: For AGACATAG, which “PBM E-score” value is on record?
Answer: inactive: 0.164

Question: How did the “PBM E-score” value turn out when TCAATGAA was run?
Answer: inactive: 0.14

Question: ACCTGCCG was tested. Which “PBM E-score” value did it give?
Answer: inactive: -0.192

Question: With ACCTTCTC as the sequence, how does the “PBM E-score” value read?
Answer: inactive: -0.0692

Question: For ACTTGGAC, which “PBM E-score” value is on record?
Answer: inactive: 0.00249

Question: For GGGGGGAC, which “PBM E-score” value is on record?
Answer: inactive: -0.363

Question: For CCGCTGAG, which “PBM E-score” value is on record?
Answer: inactive: -0.137

Question: Which “PBM E-score” value does the source give for AAAAAATC here?
Answer: inactive: 0.0484

Question: With CAGTGATG as the sequence, how does the “PBM E-score” value read?
Answer: inactive: 0.123

Question: For CGGATACG, which “PBM E-score” value is on record?
Answer: inactive: -0.0508

Question: Which “PBM E-score” value does the source give for ATCTACGG here?
Answer: inactive: 0.00867

Question: For CAGTCGGC, which “PBM E-score” value is on record?
Answer: inactive: -0.272

Question: ACAAAGAG was tested. Which “PBM E-score” value did it give?
Answer: inactive: 0.0261

Question: For GTCAGGCA, which “PBM E-score” value is on record?
Answer: inactive: -0.0537

Question: Which “PBM E-score” value does the source give for ATTTCATA here?
Answer: inactive: 0.137

Question: ACTACATG was tested. Which “PBM E-score” value did it give?
Answer: active: 0.428

Question: With GTACTTGA as the sequence, how does the “PBM E-score” value read?
Answer: inactive: 0.186

Question: Which “PBM E-score” value does the source give for CCTCGTAG here?
Answer: inactive: 0.0125

Question: Which “PBM E-score” value does the source give for CGCGGCAA here?
Answer: inactive: -0.137

Question: With AGCTATCG as the sequence, how does the “PBM E-score” value read?
Answer: inactive: 0.00182

Question: For CTTAACGA, which “PBM E-score” value is on record?
Answer: inactive: 0.00561

Question: For CGTGTTGA, which “PBM E-score” value is on record?
Answer: inactive: 0.244

Question: Which “PBM E-score” value does the source give for CGTTGCTA here?
Answer: inactive: 0.116

Question: AGTTCGTG was tested. Which “PBM E-score” value did it give?
Answer: inactive: 0.147

Question: CCAGCCAA was tested. Which “PBM E-score” value did it give?
Answer: inactive: -0.116

Question: For AGCTCACT, which “PBM E-score” value is on record?
Answer: inactive: -0.123

Question: With ATAGAGCG as the sequence, how does the “PBM E-score” value read?
Answer: inactive: -0.104

Question: For CTTGAGTC, which “PBM E-score” value is on record?
Answer: inactive: -0.0884

Question: How did the “PBM E-score” value turn out when ATGGTGCA was run?
Answer: inactive: 0.0629

Question: ACTGTCAA was tested. Which “PBM E-score” value did it give?
Answer: inactive: 0.0966

Question: Which “PBM E-score” value does the source give for CTTACATC here?
Answer: inactive: 0.296

Question: Which “PBM E-score” value does the source give for GAGACGGA here?
Answer: inactive: -0.0598

Question: For TACCGTGA, which “PBM E-score” value is on record?
Answer: inactive: -0.0129

Question: AATTGCCC was tested. Which “PBM E-score” value did it give?
Answer: inactive: -0.0635

Question: How did the “PBM E-score” value turn out when CTGACTTA was run?
Answer: inactive: 0.00809

Question: How did the “PBM E-score” value turn out when ACTTCTCT was run?
Answer: inactive: -0.00065

Question: Which “PBM E-score” value does the source give for AGCAGGCT here?
Answer: inactive: -0.126

Question: How did the “PBM E-score” value turn out when ATCGCCCG was run?
Answer: inactive: -0.131

Question: Which “PBM E-score” value does the source give for ACCGGTCA here?
Answer: inactive: -0.0647

Question: CCAGAACG was tested. Which “PBM E-score” value did it give?
Answer: inactive: -0.0547

Question: How did the “PBM E-score” value turn out when GAGTCCAA was run?
Answer: inactive: -0.00772

Question: For GTACGCAC, which “PBM E-score” value is on record?
Answer: inactive: 0.0295

Question: With ATCACTAG as the sequence, how does the “PBM E-score” value read?
Answer: inactive: 0.138

Question: GGTACACC was tested. Which “PBM E-score” value did it give?
Answer: inactive: 0.143

Question: With AATAGAAT as the sequence, how does the “PBM E-score” value read?
Answer: inactive: 0.132

Question: CACTGGTA was tested. Which “PBM E-score” value did it give?
Answer: inactive: 0.149

Question: Which “PBM E-score” value does the source give for CCATCGTC here?
Answer: inactive: -0.119

Question: How did the “PBM E-score” value turn out when GTCAACAC was run?
Answer: inactive: 0.175

Question: With ACGGCTCG as the sequence, how does the “PBM E-score” value read?
Answer: inactive: -0.148

Question: With CAGAAAAC as the sequence, how does the “PBM E-score” value read?
Answer: inactive: 0.0568

Reference: the supplement of paper PMC3724861
